The labels stand for the following.
B1: OR4K15 (parent)
chain: GUUAACGGUCAUAGGCCAUGGAAACUAGGAGCACCAUUUCGCUGCCAGUGAAGAAAUGAACAAAGAAAAUCUGGGCCAGGCAGGCAUCAAAAGAAAUAGUCUUGCGCUCAACCAGAAAGUCUGUAAUCAUUUUAAGGGUA

Read counts are not given, so values of variants with three or more changes are uncertain.

This data set covers variants of B1. The experiment in a line: self-cleavage, relative activity (ratio to wild type); higher = more cleavage; in vitro, sequencing; the parent is a self-cleaving ribozyme.
Regarding U37C A56G A67C, the self-cleavage is 2.06.
A36G U43C A64G U139C: the self-cleavage is 2.21.
For A36G A64G A82G U108C U131C the value was 0.01; for A36G A96C U103G, 0.
Then A36G A47G A54G, with 0.78; and A33G U49C A69G A95G, with 1.23.
A33G U43A U108C U130C U131C: the self-cleavage worked out at 0.
Consider A36U A94G A111C, for which the self-cleavage is 0.
For the variant A33G U37C U87C A95G A110U, the self-cleavage worked out at 0.44.
For U37C A47G A59U A111G the value was 0.02.
Then C35U A47G A118U, with 0.2.
Consider A36G G41A A51G, for which the self-cleavage stood at 1.63.
For U37C A56G U108C U122A the value was 0.01; for A33G G44A A82G A114U A116G, 0.02; for C34U A54G A117G A140G, 2.81.
Then A33G U43C A59G A62U, with 0.87; and A33G G44A A47U U49A A82G, with 0.18; and C35U G53U U131C, with 0.14.
Then A36U A52U U100C, with 2.21.
For the variant A36C U43C U87C, the self-cleavage came out at 1.85.
For A36U U122C A126U, the self-cleavage was 1.36.
For C35U U87A U131C the value was 0.72; for C34A U70C A82U A96G U108C, 0.01.
For C34U U37C U131C the value was 0.02; for U37A A60G A66G A91G, 1.37.
For A36G G79A U122C, the self-cleavage was determined as 0.11.
For A33G A62U A91U U132A U139C the value was 0.98; for A36G A89G A116G, 1.26.
Take A33G A68G U120C: the self-cleavage was determined as 0.23.
Then C34A A69U A118U, with 1.28; and A33U U49A U102A C105U A117U, with 0.01.
For A36G A69G A90G the value was 1.81; for U37C A51G A63G U122C A125U, 0.2.
Turning to A33G A78U U108C, the self-cleavage came out at 0.02.
For A36U A54G A117G the value was 1.09; for A36G A68G A69G A78G C109U, 0.12.
For A33G U57C U100C A117G the value was 1.73; for A36C A94U U100A A129C, 0.51; for C35A A55G A86U U130C, 1.31.
For A33G A94C U100C A117C A125G the value was 0.28; for C35A C113U A116G, 0.
Take A36U A63U A135G: the self-cleavage is 2.16.
Then A36U A66G A78U A82G A91G, with 0.04; and A36C U97C A118G, with 1.79.
For the variant A33G A67G A111G, the self-cleavage was 0.04.
Then U37C A47G A96G, with 0.41; and A33G U38A A95G C105U, with 0.83.
For C34G A54G A62C A82G A92G A110U the value was 0.31; for A33G A59U A64U, 0.71.
Then A36U C101U A116G, with 0.08; and C35U A52U A96G A118C, with 0.73.
A33G U49C A78G A82U: the self-cleavage is 0.06.
Then C35U A69G U100C A111G A135G, with 0; and C35U A51G U103C, with 0.27; and C35A U43C A118G G137A, with 1.61.
For A36G A64U A114U the value was 0.04; for A36U A86U A118C, 1.11; for A33U G44A U108A A116G, 0.02.
Then A33G A111G A125G, with 0.03.
On to A33U A64G U87C A91G A94U A96G U103C, for which the self-cleavage was 0.67.
Consider A36G A55U A111U U122A, for which the self-cleavage amounted to 0.03.
For A36G A62G A135G the value was 2.26.
Consider A33G A66G C105U U132A, for which the self-cleavage came out at 0.13.
Take A36G A59G A118G: the self-cleavage came to 1.42.
For A33G A78C G137U the value was 0.25; for A33G U39C U72A A78U, 0.14; for C35U A52G A59G A111G U127C U132A, 0.02.
As to C35A C45U A51G, the self-cleavage amounted to 0.93.
Then A36U A52G U120C, with 0.6.
Then A36G A114U U133C, with 0.09; and A36G A67G A114G, with 0.22.
In the case of A36U U87C U103C A110G, the self-cleavage was determined as 0.14.
Then A33G A82G A129U, with 0.13; and A36U U102C A111C, with 0.01; and A33U A60U U70C U100C U108A, with 0.02.
For A33U U43C A114C A116U A118U U124C the value was 0; for A33G A78G U87A A92G U100C, 0.1.
Regarding A33U C34G U87C, the self-cleavage was determined as 0.57.
For A33G A59G U100C the value was 1.93; for A36U U87C A90G A111U, 0.05.
Then A36G U70A A91G A117G, with 0.66.
For A36G U38C U72A the value was 0.21.
In the case of A33G A92G U133C, the self-cleavage was 1.73.
As to C34G A51U A90U A129G, the self-cleavage turned out to be 1.36.
For C35U A90C U124A U130C, the self-cleavage was determined as 0.2.
Then A33G A59G G74A, with 0.19; and A33G A117G U122C, with 0.62.
Then A33G U103A U127A, with 0.92; and A33G A59G A90G, with 0.9; and A36U A51G A82G A90G, with 0.29.
Then A36U U43C A52G U57A, with 1.37; and A33G A62G U87C U130C A134G, with 0.34; and A33U G53A A62G A92G, with 1.13.
Consider A36G A51U U100C, for which the self-cleavage came out at 1.81.
Then U37C A52U U103C, with 1.44; and A33G U57A A59G A78G G79A, with 0.14; and A33G G44U G104A, with 0.02.
As to A36G A52G A69G U70C, the self-cleavage was 0.71.
For A33G A92G A117G U120C the value was 0.14; for A33U A47G U132A, 1.02.
On to A33U U49C U139C, for which the self-cleavage was 0.99.
For A33G U57C A95G A117U, the self-cleavage was 0.57.
As for A33G A89G A118G, the self-cleavage came out at 0.1.
For C35U U38C A52G A55G A64G the value was 0.37; for A36G U39C A94G, 1.39; for A36U U38C A96G, 1.3.
Then A36G A78C A92C A116G U127A, with 0.15; and A36C C46U U132A, with 1.91; and C34U U49C A111G, with 0.01.
For A36C A110G A114G A118G U124C the value was 0.01; for A33G U43C U57A A116U, 0.18.
Consider A36U U43C A92G U131C, for which the self-cleavage is 0.86.
Then A33G A69G G84U A117G A129G, with 0.03.
For U37C A52G A66U A98U the value was 1.76.
Then A36U U39C A47G, with 1.18; and C35U A64G U87A, with 0.7; and C35U U87C A91G A98G A114G, with 0.36.
Turning to A33U A36U A55G U131C, the self-cleavage was 2.3.
Then A36G U38C A66G U124A, with 1.31; and C35U A51G U120C A135G, with 0.54.
Regarding A33U U43C C76U A98U A135G, the self-cleavage was found to be 0.05.
For the variant A36G A52G A129G U132C, the self-cleavage was 1.39.
For the variant A36G A68G A129U, the self-cleavage was determined as 1.11.
Consider A33G U43A U130C, for which the self-cleavage turned out to be 0.
For A36G A56G U87G the value was 0.48; for A33U A47G A118G, 0.75.
Regarding U37A A64G U127C, the self-cleavage stood at 0.54.
Then A33G A134U A135G, with 1.12; and A33G A89G A92U C105G A129G, with 0.01; and A33U A55U A78G, with 0.54.
C35U A51U A117G: the self-cleavage worked out at 1.18.
For A36C A47G U124C U130C the value was 0.13.
Take A36U A51G U103C: the self-cleavage is 1.06.
Then A36C C42U A67C A78G A91G, with 0.12.
Then U37C A52U A110G, with 0.15.
Then A36C U37C U49C A68G A116G, with 1.13.
On to A36U U43A A116G, for which the self-cleavage was 1.25.
For A33G U102G A118G the value was 0.04; for A36U U70C A125G U127C, 0.
For A36G A62G A89U U108C A110G the value was 0.01; for A36G A52U A90G A114U, 0.07.
Then A33G A62G A110G, with 0.21; and A36G A82G A94G U103C, with 2.73; and A36U U39C A78C, with 0.33.
Regarding A36U A111G U122C, the self-cleavage amounted to 0.
Then A36U U103C U124C U131C, with 0.33.
Then A33G U72C A89G, with 0.19; and U37C A54U A60G A111U, with 0.09; and A36C U103A U132C, with 0.62.
For A33U A56G U120C the value was 0.6.
On to A33G U43A U87C, for which the self-cleavage is 0.29.
Then U37C A47G A68C U87C A126G, with 1.01.
Turning to A33G A67G U102C U103C, the self-cleavage was found to be 0.08.
For A36G U108C U139A the value was 0.01; for U37C A51G A98G G136A, 1.12; for U37A A117G U122A, 2.2.
Then A33G U37C A54U A140U, with 0.81; and A36U A96G A116G, with 0.37; and A36U U39A A52G, with 1.29.
Then C35U A54G A69G A82G A94G A129U U131C, with 0.34; and U37A U43C A66G, with 1.18.
As for A33U A111G U130C, the self-cleavage came to 0.01.
For A33G A56U A89G U120C the value was 0.13; for A36G U37C A111U, 0.07; for A33U A55G A68G G74U, 0.36.
As to A33U A110G C113A A118G, the self-cleavage is 0.01.
For A33G U37C A54G the value was 1.12.

Source of the values: the RNAGym collection of RNA variant scans (doi:10.7554/elife.90254).
